Laboratory results: PubChem BioAssay AID1963576 (National Center for Advancing Translational Sciences (NCATS), 2024)
Hit rate of the full screen: of about 46,000 compounds, about 60 (0.1%) were called active. Roughly 3% stayed inconclusive and do not appear here. Calls come from the whole dose curve; as a rule, active = well fitted inhibition curve with a large enough effect; inconclusive = small, poorly fitted or top-dose-only effect; inactive = no such curve, though single readings can be large or run the other way. Some of the results follow.

Assay: Primary qHTS assay for Inhibitors of ovarian cancer metastasis using an organotypic tumor microenvironment (TME) model.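 For activity change, negative = inhibition: plate controls were DMSO wells for no effect and tomatine positive control wells for full effect.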 Note: nearly all actives have a fitted effect of over 65% in size.
Settings: SKOV3ip1-GFP adhesion/invasion on 3D omental model, fluorescence; series mostly up to 45.8 µM; activity change, negative = inhibition: at the top concentration
Procedure, shortened: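 Adhesion/invasion was scored as fixed GFP-labeled SKOV3ip1 cell counts (488/509 nm), normalized to DMSO and tomatine controls. Cancer cells in serum-free medium, with four compound doses (0.36-46 umol/L), sat 2 hr at RT then 16 hr at 37 C on a 48 hr fibroblast/mesothelial/ECM culture.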

Activity change, negative = inhibition, inactive:
O=c1cc(CSc2n[nH]c(-c3ccccc3)n2)[nH]c2ccccc12 -4.03%, COc1ccccc1NC(=O)CSc1oc(-c2cccs2)nc1S(=O)(=O)c1ccccc1 2.69%, Cc1ccc(CN2C(=O)C3(c4ccccc42)N(c2cccc(C(F)(F)F)c2)C(=O)CS3(=O)=O)cc1 (centres undefined) -7.77%, Cc1nnc(NCc2ccccc2)c2c1nnn2Cc1ccc(F)cc1 1.9%, N=C(N=C(N)N)N1CCOCC1 -2.53%, CCc1cccc(NC(=O)Cn2nc(-c3cc(C)ccc3C)ccc2=O)c1 -4.1%, O=C(NC1CCCCC1)c1ccc2c(c1)N(Cc1ccc(Cl)cc1)C(=O)c1ccccc1S2(=O)=O 7.07%, CC(Sc1nc(=O)cc(N)n1CCc1ccccc1)C(=O)Nc1ccccc1C#N (centres undefined) 7.28%, Cc1ccc(C)c(N2CCN(C3=C(c4ccccc4)C(=O)c4ccccc43)CC2)c1 -7.72%, CC(=O)c1cccc(NS(=O)(=O)c2ccc3c(c2)NC(=O)CC(=O)N3)c1 -9.03%, Cc1ccc(Cl)cc1NC(=O)Cn1c(=O)n(Cc2ccc(C(=O)NCc3ccc4c(c3)OCO4)cc2)c(=O)c2ccccc21 18.7%, CCN(Cc1ccccc1)C(=O)c1cc2c(s1)-c1c(C)cccc1OC2 11.7%, CC(=O)N1c2c(cc(Br)cc2S(=O)(=O)N2CCN(c3cccc(Cl)c3)CC2)CC1C (centres undefined) 26.2%, COc1cccc(N2CCN(C(=O)c3cnn(-c4ccc(C)cc4C)c3C3CCN(C(=O)OC(C)(C)C)CC3)CC2)c1 3.62%, CCOc1ccc(-c2csc(/C(C#N)=C/c3ccc(Br)cc3)n2)cc1 7.48%, Cc1nn(CC(=O)Nc2ccccc2F)c(=O)c2c(C)n(-c3ccc(Cl)cc3)nc12 -25.4%, O=c1c2cnn(-c3ccc(Cl)cc3)c2ncn1Cc1cccc(C(F)(F)F)c1 -0.71%, CCN1CCN(c2c(S(=O)(=O)c3ccc(C)c(C)c3)cnc3ccc(F)cc23)CC1 -7.3%, CN1CCN(c2nc3c(S(=O)(=O)c4ccccc4)nnn3c3ccsc23)CC1 3.45%, CCCN(CCC)C(=O)Cn1c(=O)n(-c2ccc(OC)cc2)c(=O)c2ccc(C(=O)NCc3ccc(C)cc3)cc21 -8.36%, CCCn1c(NCc2ccc(N(CC)CC)cc2)nc2ccccc21 -2.48%, CCOC(=O)C1CCN(C(=O)CN2c3ccc(CC)cc3-c3ccccc3S2(=O)=O)CC1 -6.97%, CCS(=O)(=O)c1ncc(N(Cc2ccc(F)cc2)Cc2ccco2)c(C(=O)Nc2cc(C)ccc2C)n1 -4.5%, COc1cccc(-c2ccc3c(N)c(C(=O)Nc4cc(F)ccc4F)sc3n2)c1 2.75%, CCCCN(CCCNC(=O)c1c(C)oc2nc[nH]c(=O)c12)Cc1ccccc1 -1.09%, COc1ccc(CNC(=O)c2cnn(-c3ccc(F)cc3)c2-n2cccc2)cc1 44.7%, Cc1ccc(NC(=O)Cn2cc(S(=O)(=O)N3CCC(C)CC3)c3ccccc3c2=O)c(Br)c1 -20.9%, COc1ccc(-c2nnc(SCC(=O)N(C)Cc3ccccc3)o2)cc1OC 7.64%, O=S(=O)(Nc1cccc(-c2ccc(N3CCCC3)nn2)c1)c1ccc(F)c(C(F)(F)F)c1 2.12%, Cc1ccc(Nc2c(-c3cccnc3)nc3ccc(Br)cn23)cc1 -1.44%, CNC(=O)c1c(NC(=O)c2ccc(S(=O)(=O)N3CCCCC3C)cc2)sc2c1CCC2 (centres undefined) -8%, Cc1c(Cl)cccc1NC(=O)Cn1cc2c(n1)CCCC2 0.082%, COc1ccc(C)cc1-n1nnc(C(=O)Nc2cccc(SC)c2)c1C 10.2%, Cc1oc2c(c(C)cc3oc(=O)c(CC(=O)NCc4ccccc4)c(C)c32)c1C 6.77%, CCOC(=O)c1cc(-c2ccccc2)n(-c2cccc(C(=O)Nc3cccc(C(C)=O)c3)c2)c1C 6.54%, Cc1cccc(CNC(=O)c2ccc(NC(=O)N3CCSc4ccccc43)cc2)c1 2.22%, O=C(O)c1ccc(NC(=O)c2cc3ccccc3o2)cc1 6.58%, C[C@@H](Oc1cc(-c2cnn(C3CCNCC3)c2)cnc1N)c1c(Cl)ccc(F)c1Cl -15.8%, O=C(CSc1nc2c([nH]c3ccccc32)c(=O)n1-c1ccccc1)N1CCCCCC1 -9.94%, CCc1cccc(NC(=O)CCS(=O)(=O)c2ccc3nc(C)sc3c2)c1 -1.28%, Cc1cccc(-n2ccnc2SCC(=O)Nc2ccc3c(c2)OCO3)c1 -12.1%, Cc1nc2c3ccccc3nc(NNC(=O)CCC(=O)N3CCN(c4cccc(C(F)(F)F)c4)CC3)n2n1 -7.09%, CSCCC(NS(=O)(=O)c1ccc2c(c1)oc(=O)n2C)C(=O)N1CCN(c2ccc(F)cc2)CC1 (centres undefined) -9.63%, COc1ccc(CN2C(=O)c3oc4ccccc4c(=O)c3C2c2ccc(O)c(OC)c2)cc1 (centres undefined) -0.147%, Cc1csc2nc(CCNS(=O)(=O)c3ccc(F)cc3)cn12 5.17%, CC(=O)c1ccc(NC(=O)CCc2c(C)nn(-c3ccc(N4CCCCC4)nn3)c2C)cc1 4.73%, COc1cccc(C(=O)NC2CC(=O)N(c3ccc4c(c3)OCCO4)C2)c1OC (centres undefined) 7.2%, CCOc1ccccc1NC(c1nnc(-c2ccccc2)o1)c1ccc(F)cc1Cl (centres undefined) -3.68%, Cn1c(=O)oc2cc(S(=O)(=O)N3CCC(C(=O)N4CCN(c5ccc(Cl)cc5)CC4)CC3)ccc21 14.8%, O=C(Nc1ccc2oc(-c3ccc(Cl)cc3)nc2c1)c1ccc2ccccc2c1 5.63%, CCOC(=O)c1c(NC(=O)c2ccc(OC)c(OC)c2)sc2c1CCCCC2 -6.2%, COc1ccc(C2CC(=O)N(Cc3ccccc3)c3c2c(C)nn3-c2nc(C)cc(C)n2)c(OC)c1 (centres undefined) 3.09%, Cc1cccc(NS(=O)(=O)c2ccc(NC(=O)N3CCCC3)cc2)c1 -1.28%, CCc1ccc(NS(=O)(=O)c2ccc3[nH]cc(C(=O)N(C)Cc4ccco4)c(=O)c3c2)cc1 10.3%, CCc1ccccc1NC(=O)Cn1cc2c(n1)CCC(C)C2 (centres undefined) -5.55%, CCC(=O)N1CCc2cc(Br)cc(S(=O)(=O)CCC(=O)NCCc3ccccc3)c21 13%, CC(C)CN(CCNC(=O)c1cn(C)c2ccc(S(=O)(=O)N3CCCC3)cc2c1=O)CC(C)C 7.11%, CCOC(=O)c1ccc2[nH]c(CSc3nnc(-c4cccc(F)c4)n3C)cc(=O)c2c1 -0.36%, CCCc1cc(=O)[nH]c(Nc2cc(Cl)ccc2OC)n1 -8.45%, CCC(C)NC(=O)c1sc2ncccc2c1-n1c(C)ccc1C (centres undefined) 4.71%, CN(C(=O)CSc1nc2ccc(NC(=O)COc3ccccc3)cc2s1)c1ccccc1 -18.8%, Cc1ccc(CNc2nccn(-c3cc(C)cc(C)c3)c2=O)cc1 -0.944%, COc1ccc(OC)c(NC(=O)c2cc(=O)c3c(C)cc(C)cc3o2)c1 0.347%, CCOC(=O)c1c(NC(=O)c2cc(Cl)ccc2Cl)sc2c1CCCC2 -18.8%, COc1ccc(-c2ccc(CCC(=O)O)n2-c2ccc(Cl)cc2C)cc1 13.5%

outcome, inactive:
COc1ccc(OC)c(NC(=O)CN2C(=O)CCc3cc(S(=O)(=O)N4CCCCC4)ccc32)c1, O=C(CN1C(=O)COc2ccc(S(=O)(=O)N3CCOCC3)cc21)N1CCN(c2ccc(F)cc2)CC1, COc1ccc(NC(=O)CSc2cc(-c3ccccc3)nc(C)n2)cc1, Cc1ccc(-n2c(SCC(=O)Nc3cccc(C)c3)nc3c(oc4ccccc43)c2=O)cc1, CCC(=O)Nc1ccc2nc(SCCOc3ccc(C)cc3)sc2c1, CCOC(=O)C1CCCN(C(=O)c2ccc(-n3ccc4ccccc43)s2)C1 (centres undefined), Cc1cccc(Oc2ccc3c(c2)Oc2ccccc2NC3=O)c1, COc1cccc(N2CCN(C(=O)CN3C(=O)COc4ccc(S(=O)(=O)N5CCC(C)CC5)cc43)CC2)c1, COc1ccc(C(=O)NCC(c2cccnc2)N2CCc3ccccc32)cc1OC (centres undefined), Cc1ccc(NC(=O)Cn2c(SCc3ccc(F)cc3)nc3cccnc32)cc1F, CC1CCc2c(sc(NC(=O)COc3ccccc3C(C)(C)C)c2C#N)C1 (centres undefined), O=C(Nc1cccc(F)c1)C1CCN(c2nc3ccccc3[nH]2)CC1, CCCCOc1ccc(C(=O)N/C(=C\c2ccc(Br)cc2)C(=O)NC2CCCCC2)cc1, CCc1ccc(-n2nc(C)c3c(C)cc(=O)n(CC(=O)Nc4ccccc4C(=O)OC)c32)cc1, COc1ccc(CNc2ncnc3c2cnn3-c2ccc(C)c(C)c2)cc1, CCOc1ccc(CNC(=O)c2ccc3c(c2)nc2n3CCC(C)C2)cc1OC (centres undefined), CCCCSCCCNC(=O)C1CCC(CNS(=O)(=O)c2c(C)cc(C)cc2C)CC1 (centres undefined), O=C(CCOc1ccccc1)N(Cc1cccnc1)c1nc2ccc(F)cc2s1, Cc1ccccc1CNC(=O)Nc1ccc2c(c1)N(C)C(=O)c1ccccc1S2, CCOC(=O)c1cc(C)n(CC2CCC(C(=O)Nc3ccc(C(=O)OC)cc3)CC2)c1C (centres undefined), CCOc1ccc(-c2oc3cc(Cl)ccc3c(=O)c2O)cc1OC, CCOC(=O)c1c(-c2ccccc2)oc2ccc(N(C(C)=O)S(=O)(=O)c3ccc(C)cc3)cc12, CCCN(C(=O)CCNC(=O)Cn1cnc2ccccc2c1=O)c1cccc(C)c1, Cc1cccc(NC(=O)COc2cccc3c(=O)n(C)ccc23)c1C, CCOc1cc(C2c3c(oc4ccccc4c3=O)C(=O)N2c2ccccn2)ccc1O (centres undefined), Cc1ccc(C)c(-c2[nH]c3c(c2-c2c(-n4cccc4)n(C)c(=O)n(C)c2=O)c(=O)n(C)c(=O)n3C)c1, Cc1ccc(-n2nc(C(=O)N3CCN(c4cccc(C(F)(F)F)c4)CC3)c3c4ccccc4n(C)c3c2=O)cc1, Cc1ccc(CNc2cc(C)nc3nc(-c4cccc(C)c4)nn23)cc1, CCOC(=O)c1cccc(NC(=O)CCc2c(C)nn(-c3ccc(N4CCOCC4)nn3)c2C)c1
